The text below walks through data of paper PMC13572498, “Enhancing iNKT cell immunotherapy through the integration of optimized CAR endodomains and iNKT engagers” (Nature Communications, 2026).

Assay [1] addresses T1, soluble biotinylated BCMA (recombinant BCMA-biotin) (UniProt Q02223 1-54, biotin).
T1 sequence (looked up): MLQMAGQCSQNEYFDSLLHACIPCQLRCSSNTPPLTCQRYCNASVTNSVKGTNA
Kind of assay: cell-based or functional assay.

In assay [2] the target is T1, soluble biotinylated BCMA (recombinant …). Nature of the assay: SPR; Biacore S200; soluble biotinylated BCMA immobilised on Series S SA sensorchip (3500 RU); biNTe injected, single-cycle kinetics, 4-point series 0.1, 1, 10, 200 nM, 400 s injections, 400 s dissociation; PBS-P+. Conditions: both partners purified.

B1: monovalent BCMA bispecific iNKT engager (heterodimeric, monovalent scFv-Fc human IgG1, LALA, 'key-in-hole'; anti-BCMA C11D5.3 scFv-Fc + anti-TCRVβ11 C21 … (bispecific antibody)
chain 1: DIVLTQSPPSLAMSLGKRATISCRASESVTILGSHLIHWYQQKPGQPPTLLIQLASNVQTGVPARFSGSGSRTDFTLTIDPVEEDDVAVYYCLQSRTIPRTFGGGTKLEIKGGGGSGGGGSGGGGSQIQLVQSGPELKKPGETVKISCKASGYTFTDYSINWVKRAPGKGLKWMGWINTETREPAYAYDFRGRFAFSLETSASTAYLQINNLKYEDTATYFCALDYSYAMDYWGQGTSVTVSSGGGGSGGGGSGGGGS[no letters for human IgG1 Fc with changes]
chain 2: DIKMTQSPSSMYASLGERVTITCKASQDINSYLSWFQQKAGKSPKTLIYRANRLVDGVPSRFSGSGSGQDYSLTISSLEYEDMGIYYCLQYDEFPFTFGGGTRLEIKGGGGSGGGGSGGGGSQVQLQQSGPEVVRPGVSVKISCKGSGYRFTDSAMHWVKQSHAKSLEWIGVISSYNGNTNYNQKFKGKATMTVDKSSSTAYMELARMTSEDSAIYYCARSRDAMDYWGQGTSVTVSSGGGGSGGGGSGGGGS[no letters for human IgG1 Fc with L234A L235A S354C Y407T (EU numbers)]
notes: anti-BCMA (C11D5.3) scFv (VL-(G4S)3-VH) - (G4S)3 - hinge-CH2-CH3 of human IgG1 with LALA and 'key-in-hole' change; left out here; anti-TCRVβ11 (C21) scFv (VL-(G4S)3-VH) - (G4S)3 - hinge-CH2-CH3 of human IgG1 with LALA and 'key-in-hole' change; Heterodimeric scFv-Fc; also called monovalent biNTe; monovalent engager; source: 293T cells, transiently co-transfected, purified from culture supernatant …
In the case of B1, in assay [1], the “EC50 measured against MM1.S cells in the presence of iNKT” value was determined as 0.0062 nM. The Kd (in general, a measure of binding affinity in units of concentration) in assay [2] came to 34.5 nM.
